# According to the supplement of paper PMC3334620:
# Whole data set: some 33,000 sequences, median “E-score (-0.5 to 0.5)” near -0.016, cut for the highest 2% near 0.32. The list shows a part of the results.
# Molecular target: T1, Stp1 (UniProt B3LFK1)
# T1 sequence: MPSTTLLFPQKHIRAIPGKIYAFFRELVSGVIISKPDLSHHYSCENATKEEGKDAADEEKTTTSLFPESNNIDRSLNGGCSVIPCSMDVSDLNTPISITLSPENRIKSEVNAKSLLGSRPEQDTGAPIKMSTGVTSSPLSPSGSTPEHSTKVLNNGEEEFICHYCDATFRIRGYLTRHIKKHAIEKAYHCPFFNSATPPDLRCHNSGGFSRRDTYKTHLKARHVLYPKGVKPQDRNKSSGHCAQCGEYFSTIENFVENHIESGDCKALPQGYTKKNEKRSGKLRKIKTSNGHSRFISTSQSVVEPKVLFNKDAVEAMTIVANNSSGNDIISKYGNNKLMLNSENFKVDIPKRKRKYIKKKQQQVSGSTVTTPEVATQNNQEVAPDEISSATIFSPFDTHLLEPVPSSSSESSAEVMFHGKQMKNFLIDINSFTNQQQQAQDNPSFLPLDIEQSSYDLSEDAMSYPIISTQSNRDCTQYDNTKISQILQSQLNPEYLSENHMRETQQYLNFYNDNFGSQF
# Experiment: PBM E-score (8-mer binding enrichment) (E-score (-0.5 to 0.5)); higher = stronger / more preferred TF binding; most listed sequences are background and not binding sites
# Details: protein concentration: 200 nM; construct: GST-full length
# Summary of the method: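 Using PURExpress in vitro transcription/translation, GST-tagged yeast transcription factors were made in full-length or DNA-binding-domain form. These were applied at about 100-200 nM to double-stranded universal all-10-mer Agilent arrays, and bound protein was detected with fluorescent anti-GST. Scans were normalised with masliner before the Universal PBM Analysis Suite assigned E-scores to ungapped eight-base words pooled with their reverse complements.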
row,Sequence,PBM E-score
1,AACGGGTG,-0.0602
2,CCCCGGCG,-0.174
3,ACCCGCTG,-0.234
4,CTCCGACC,-0.265
5,AAAGCTCC,-0.157
6,AACACTCC,0.0466
7,ATGCCGTC,0.406
8,GCTTAATA,0.0221
9,GCTTACCC,-0.138
10,AAGTATGC,0.0754
11,ATATTTCG,0.226
12,AAACGGGC,0.148
13,TCACTCAA,-0.0432
14,GATGGGAC,-0.263
15,GATGTAAC,-0.016
16,ATTCGTTG,0.0381
17,CATTCGAA,0.0574
18,ATGGTCTG,-0.0392
19,ACCCAAAG,-0.107
20,GTGTAGCA,-0.202
21,CCTGCTTC,-0.24
22,CATATGCA,0.0227
23,GTGCAAAC,-0.0949
24,GGAAGGCC,-0.0954
25,CGGGAGCC,0.0161

row,Sequence,PBM E-score
1,CCTGTCCG,-0.0984
2,CACCCGGG,-0.234
3,CCAGAAAG,0.0349
4,AAGGCAGC,0.239
5,ACATATTG,0.164
6,AGCTTACT,0.0367
7,TACGAAGA,0.0422
8,AGCTTAGA,-0.0573
9,AGGTGATA,-0.0546
10,CGTCAACA,0.0765
11,CAAGAGTG,-0.227
12,CGATGGTC,-0.103
13,ATCAATCG,0.156
14,CCGGGCAC,0.0281
15,AGGCACCC,-0.00944
16,CAGCAACA,0.164
17,TATTTACA,-0.0816
18,CTCCCCCC,-0.232
19,ATCGACTG,-0.12
20,AGCTCTTC,-0.131
21,GAAGTCAC,-0.226
22,CTCTCAAG,-0.191
23,ATTGTGCA,0.162
24,CATAATGA,-0.0173
25,GGGCCCGA,-0.0056

row,Sequence,PBM E-score
1,CCTTGTAG,0.0177
2,ATTCGGAG,-0.0999
3,CGCGGCCG,0.321
4,GTGCTTCA,0.0475
5,ACAGTTCC,-0.00302
6,AAGACAAT,0.172
7,CCTTCTAC,-0.0931
8,AATGTACG,-0.0657
9,AGTATAGA,0.13
10,CGGCGGAC,0.0528
11,GGGAAGCA,-0.192
12,ACACTGGC,-0.0941
13,CGCCAGCC,0.00306
14,ACGCCCCA,0.222
15,CTTCTTGC,0.117
16,CGTTCCAG,-0.176
17,TACAGAGA,-0.145
18,GACAAACC,-0.0886
19,CAAAAAAC,0.168
20,ACAATAAG,0.13
21,GCCCATTA,-0.0278
22,ATCTCGGC,-0.0787
23,AATGCCCA,0.119
24,GCAACTGC,0.153
25,CCAGAGAA,-0.0224

row,Sequence,PBM E-score
1,ACTTGGGG,-0.0517
2,CCTCTCCA,-0.178
3,CAGAATGC,0.0355
4,AGCCGGTC,-0.156
5,ACACTATC,0.00314
6,GACGACTA,-0.148
7,TCACACCA,0.0916
8,GCTGTTTA,0.0828
9,GATCCACA,0.00706
10,AAATTCCG,0.126
11,TGCCGGAA,0.0977
12,AGTGATCC,-0.19
13,TAAACTAA,0.193
14,CGAAGAAA,0.115
15,CATAATTC,0.079
16,ACGAGTCA,-0.168
17,AAATGTAC,0.0049
18,GCCCACGC,-0.129
19,CGTCTTCA,-0.036
20,ACGGGTGA,-0.0471
21,ATAGGCTC,-0.0265
22,CCAAGAGC,0.0254
23,CCGAAACG,-0.111
24,CCCCAGTA,-0.265
25,GTCTTAAC,0.0462

row,Sequence,PBM E-score
1,CAATTTAC,0.125
2,CCGGGAGA,-0.264
3,CCGTGGTC,-0.0212
4,GGAAGCCA,-0.246
5,CCGCACCA,0.237
6,CAGATAGA,-0.14
7,CCGAGCAA,-0.0344
8,GATATGCC,0.068
9,CGAGAACA,-0.0718
10,CGTAGTGC,0.0359
11,CGTGTTGA,-0.0786
12,CTTAACGA,0.0551
13,AGCTATCG,-0.147
14,AGTTCGTG,0.0175
15,CGTTGCTA,-0.0508
16,AGCTCACT,-0.189
17,CCAGCCAA,-0.114
18,ACAAAGAG,0.00199
19,CAGTCGGC,0.0617
20,ATCTACGG,0.195
21,CGGATACG,0.144
22,GTCAGGCA,-0.162
23,ACTACATG,-0.0514
24,ATTTCATA,-0.00569
25,CGCGGCAA,0.424

row,Sequence,PBM E-score
1,CCTCGTAG,0.092
2,GTACTTGA,-0.036
3,ACCTTCTC,-0.251
4,ACCTGCCG,0.0995
5,CCGCTGAG,-0.0707
6,GGGGGGAC,-0.484
7,ACTTGGAC,0.0954
8,AAAAAATC,0.159
9,CAGTGATG,0.0775
10,CAGTCAAG,-0.18
11,GCACCTAC,-0.16
12,TAGACCAA,0.0723
13,GGATCCCA,-0.157
14,CTATGTGA,-0.101
15,CGAACATA,0.0688
16,AGAACACA,0.0195
17,AGGTTAGC,-0.175
18,TCAATGAA,0.0662
19,AGACATAG,0.102
20,AGCGGCTA,0.165
21,ATTGCGCC,0.308
22,ACCGACTC,-0.172
23,CGTTCGAC,-0.0707
24,ATGACCCC,-0.255
25,TACCAGAA,0.0702

row,Sequence,PBM E-score
1,AGAAATGA,0.0622
2,AATAAGTG,0.0724
3,AGCTTCTA,-0.107
4,ACACATCT,-0.0334
5,CCCACTAA,-0.0484
6,AAGGTCGG,-0.217
7,TAAAATGA,0.156
8,CCAGTGGC,-0.0717
9,CTATTACC,-0.0513
10,ACGGGTAC,0.0251
11,AAGTAGAG,-0.12
12,GGGCTGAC,-0.134
13,ATGGGAGG,-0.276
14,CTCAACGA,-0.0461
15,ATGACGCA,-0.0189
16,GCCCGGCA,-0.0116
17,CCCTAGCC,-0.0961
18,CTTTAGGC,-0.0119
19,ACGTACAA,-0.0142
20,CGTGGCAC,0.236
21,CCCAGCTC,-0.225
22,GAATCCTC,-0.181
